Laboratory results taken from PubChem BioAssay AID1508642 (National Center for Advancing Translational Sciences (NCATS), 2021).
The campaign covered roughly 43,000 compounds. About 200 (0.47%) were called active. Inconclusive results (about 12%) are left out. Calls come from the whole dose curve; as a rule, active = well fitted cell-killing curve with a large enough effect; inconclusive = small, poorly fitted or top-dose-only effect, or effect the other way; inactive = flat fitted curve, though single readings scatter. This is one part of the list.

Experiment: Cell viability qHTS assay in S16 Pmp22-F2sN cells; note: nearly all actives have a fitted effect of over 65% in size
Details: S16 Pmp22-F2sN Schwann cells (luciferase reporters placed in the Pmp22 gene) viability, CellTiter-Glo, 24 h; series mostly up to 57.5 µM; activity change, negative = cytotoxicity: at the top concentration
Summary of the method: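 Luminescence from CellTiter-Glo, read by CCD camera after a 15 min room-temperature incubation, served as the viability signal. Reporter Schwann cells (S16 Pmp22-F2sN) had been treated with pin-transferred compounds for 24 h at 37C.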
% is set by controls: 0 for no effect and ±100 for the full control effect.

Row | Compound | activity change, negative = cytotoxicity
1 | CCOc1ccc(CN2C(=O)c3ccccc3Sc3ccc(C(=O)NC)cc32)cc1 | inactive: -1.76%
2 | COC(=O)c1ccc2c(c1)N(CC(=O)Nc1cccc(Cl)c1C)C(=O)c1ccccc1S2 | inactive: -1.69%
3 | CC(C)NC(=O)Cn1c(=O)nc(-c2ccccc2F)c2cc(Cl)ccc21 | inactive: 4.48%
4 | Cc1cn2c(=O)cc(COc3ccccc3NC(=O)c3ccc(C(C)(C)C)cc3)nc2s1 | inactive: 9.68%
5 | Cc1cccc(CNC(=O)c2oc3c(c2C)-c2nn(Cc4cccc(Cl)c4)cc2CC3)c1 | inactive: -2.01%
6 | CCOc1ccc(NC(=O)Cn2c(=O)n(Cc3nc(-c4ccccc4)no3)c(=O)c3cc4c(cc32)OCO4)cc1 | inactive: 1.13%
7 | CC(=O)c1ccc(NC(=O)c2nc(-c3ccccc3)n(-c3ccc(Cl)cc3)n2)cc1 | inactive: 14.4%
8 | CC(C)c1cnc2c(c1SCc1cccc(F)c1)c(=O)n(C)c(=O)n2C | inactive: 6.9%
9 | Cc1ccc(-c2nc3nc(C)cc(C)n3c2Nc2ccc3c(c2)OCCO3)cc1 | inactive: -24.8%
10 | CC(=O)N1CCc2cc(Br)cc(S(=O)(=O)N3CCC(C)CC3)c21 | inactive: 9.51%
11 | Cc1ccc(Cn2ccn(CC(=O)Nc3c(C)cc(C)cc3C)c(=O)c2=O)cc1 | inactive: -0.499%
12 | CCOC(=O)c1cc2c(=O)n3ccccc3nc2n(CCOC)c1=NC(=O)C(C)(C)Oc1ccc(Cl)cc1 | inactive: 9.31%
13 | Cc1nc2nc(NC(=O)C(C)(C)C)[nH]n2c(=O)c1Cc1ccccc1 | inactive: 3.25%
14 | Cc1cccc(-c2nc3nc(C)cc(NCc4ccccc4Cl)n3n2)c1 | inactive: -17.8%
15 | Fc1cc(F)c2ncc3c(-c4ccccc4)nn(-c4cccc(Cl)c4)c3c2c1 | inactive: 0.195%
16 | CC(C)OCCCNC(=O)C(=O)Nc1ccc2nc3n(c(=O)c2c1)CCCCC3 | inactive: 25%
17 | Cc1cccc(Cn2c(=O)n(Cc3ccccc3)c(=O)c3oc4ccccc4c32)c1 | inactive: -1.28%
18 | Cc1ccccc1NC(=O)C1CCN(C(=O)c2cnn(-c3ccccc3)c2-n2cccc2)CC1 | inactive: -21.9%
19 | Cc1ccc(Sc2ccc(N3CCC(C(=O)Nc4ccc(C)c(F)c4)CC3)nn2)cc1 | inactive: 13.2%
20 | Cc1ccc(-n2c(SCC(=O)NCc3ccccc3)nc3n[nH]c(C)c3c2=N)cc1Cl | inactive: 1.06%
21 | O=C(NCC(c1cccs1)S(=O)(=O)c1cccs1)c1ccc(Cl)cc1 (stereo not drawn) | inactive: 4.27%
22 | CC1CCN(c2oc(-c3ccc(COc4ccccc4)o3)nc2C#N)CC1 | inactive: -3.02%
23 | Cc1cc(C)c(NC(=O)CN2C(=O)c3cccnc3Oc3ccc(C)cc32)c(C)c1 | inactive: 2.04%
24 | Cc1ccc(-c2cc(NC(=O)COc3ccc(Cl)c(C)c3)on2)cc1 | inactive: -0.509%

Row | Compound | activity change, negative = cytotoxicity
25 | CCN1CCN(C(=O)Cn2ncc3c4ccccc4n(Cc4ccccc4)c3c2=O)CC1 | inactive: -1.42%
26 | Cc1ccc(/C=C/C(=O)Nc2ccc(S(N)(=O)=O)cc2)o1 | inactive: 4.68%
27 | Nc1nnc(SCC(=O)Nc2ccccc2)s1 | inactive: 3.5%
28 | COc1cccc(NC(=O)Cn2c(=O)n(CC(=O)NCc3ccc(C)cc3)c(=O)c3sccc32)c1 | inactive: 1.03%
29 | CCOC(=O)c1cccc(NC(=O)c2cn(-c3cccc(OC)c3)c(=O)c3ccccc23)c1 | inactive: 3.21%
30 | Cc1cc(C)c(Cn2c3ccccc3c3cnn(CC(=O)NCc4ccccn4)c(=O)c32)c(C)c1 | inactive: -11%
31 | COc1ccc2cc(C(=O)NCc3ccc4c(c3)CCN4C(=O)c3ccccc3)[nH]c2c1 | inactive: 6.26%
32 | Cc1cccc(C(=O)NC(=O)Nc2ccc(-c3cc(C(F)(F)F)nn3-c3ccccc3)cc2)c1 | inactive: 8.1%
33 | COc1ccc(C(=O)Nc2ccc(OCc3cc(=O)n4ccsc4n3)cc2)cc1OC | inactive: 5.58%
34 | CCOc1ccc(S(=O)(=O)c2cn(Cc3ccccc3)c3ccc(OCC)cc3c2=O)cc1 | inactive: -7.29%
35 | Cc1cc(NC(=O)NCc2ccc3c(c2)CCN3C(=O)c2ccccc2)ccc1Br | inactive: -8.71%
36 | CC(C)(C)OC(=O)N1CCC(c2c(C(=O)NCc3ccco3)cnn2-c2ccccc2)CC1 | inactive: -2%
37 | Cc1ccc(NC(=O)Cn2cnc3nc4c(cc3c2=O)CCCC4)cc1Cl | inactive: 1.36%
38 | Cc1cc(=O)n2nc(N3CCC(C(=O)NCc4ccccc4)CC3)sc2n1 | inactive: 24.3%
39 | Cc1cc(C)c2c(=O)cc(C(=O)Nc3ccc(S(=O)(=O)N(C)Cc4ccccc4)cc3)oc2c1 | inactive: 7.33%
40 | O=C(C1CCN(S(=O)(=O)c2cccc3nonc23)CC1)N1CCN(c2ccccc2F)CC1 | inactive: -13.1%
41 | CCOC(=O)c1sc2ccccc2c1S(=O)(=O)N1CCN(c2cccc(C)c2C)CC1 | inactive: 6.35%
42 | CCC(C(=O)OC)n1cnc2c(cnn2-c2ccc(F)cc2)c1=O (stereo not drawn) | inactive: 4.16%
43 | COc1ccc(-c2nc(SCC(=O)c3ccc(OC)c(Br)c3)n[nH]2)cc1 | inactive: -6.36%
44 | COc1cc(NC(=O)C2CCCN(S(=O)(=O)c3ccc4c(c3)CCCC(=O)N4)C2)cc(OC)c1 (stereo not drawn) | inactive: 11.1%
45 | COc1cc(Cl)c(C)cc1NC(=O)Cn1ncc2c(=O)oc3ccccc3c21 | inactive: 1.01%
46 | CCOc1cccc(C2c3[nH]c4ccccc4c3CCN2C(=O)CCC2CCCC2)c1 (stereo not drawn) | inactive: 12%
47 | CCC(Sc1nc2nccnc2c(=O)n1Cc1ccc(F)cc1)C(=O)NC1CCCCC1 (stereo not drawn) | inactive: 7.98%
48 | COc1ccc(CNC(=O)c2ccc3c(c2)N(Cc2ccccc2F)C(=O)c2ccccc2S3(=O)=O)cc1 | inactive: 13.8%

Row | Compound | activity change, negative = cytotoxicity
49 | COCCNC(=O)CCc1c(C)nc2c(c(C)nn2-c2ccc(C)cc2)c1C | inactive: -5.09%
50 | Cc1cc(F)ccc1NC(=O)CN(C)S(=O)(=O)c1ccc(C(=O)N2CCOCC2)s1 | inactive: 21.9%
51 | CCN(CC)C(=O)CSc1nc2cc3c(cc2c(=O)n1CCCCCC(=O)NCCc1ccc(OC)c(OC)c1)OCO3 | inactive: 5.35%
52 | CCc1ccccc1NC(=O)CSC1=Nc2ccccc2C2=NC(Cc3ccccc3)C(=O)N12 (stereo not drawn) | inactive: -11.6%
53 | O=C(COc1ccc([N+](=O)[O-])cc1)Nc1cccc2cccnc12 | inactive: -1.9%
54 | COc1ccc(OCc2ccc(-c3nc(C#N)c(N4CCN(c5cccc(Cl)c5)CC4)o3)o2)cc1 | inactive: 2.07%
55 | CCCN(CCC)c1nc(-c2ccccc2F)nc2ccccc12 | inactive: 26.2%
56 | CCc1cccc(NC(=O)CCc2nc3cccnc3n2-c2ccccc2)c1 | inactive: 4.86%
57 | CSc1ccc(CCNC(=O)c2ccc(CS(=O)(=O)c3ccc(Br)cc3)o2)cc1 | inactive: -5.79%
58 | COCCNC(=O)c1cccc(Nc2nc3ccccc3n3nnnc23)c1 | inactive: 0.897%
59 | CCOc1cc(CNC(=O)c2ccc3c(c2)N(C)C(=O)C2CCCCN32)cc(OCC)c1OCC (stereo not drawn) | inactive: 7.16%
60 | O=C(Nc1ccc(F)cc1F)c1cc2c(=O)n3ccccc3nc2s1 | inactive: 6.71%
61 | Cc1ccc(-n2nc(C)c3c(C(=O)NCc4ccc(F)cc4)cc(C)nc32)cc1 | inactive: 0.682%
62 | Cc1cccc(N2CC(C)Cn3c2nc2c3c(=O)n(CC(=O)O)c(=O)n2C)c1 (stereo not drawn) | inactive: 4.71%
63 | COc1ccc(CNC(=O)c2cc3cc(S(=O)(=O)N4CCCCC4)ccc3n2C)c(OC)c1 | inactive: -12.7%
64 | O=C1N(Cc2cccc(C(F)(F)F)c2)c2ccccc2S(=O)(=O)N1c1cccc(Cl)c1 | inactive: 15.2%
65 | COc1ccc(NC(=O)CCc2c(C)nc3c(c2C)c(=O)n(C)c(=O)n3C)cc1OC | inactive: 5.43%
66 | O=c1c2sc3ccccc3c2n(Cc2cccc(C(F)(F)F)c2)c(=O)n1Cc1ccccc1 | inactive: 0.168%
67 | COc1ccc(NC(=O)CSc2nc(-c3cccs3)cc(C(F)(F)F)c2C#N)cc1 | inactive: 8.75%
68 | CCOC(=O)N1CCc2c(sc(NCc3ccc(N(C)C)cc3)c2C(=O)Nc2ccc(OC)cc2)C1 | inactive: 4.85%
69 | CC1CCc2c(sc(NC(=O)c3ccc(Cl)cc3Cl)c2C#N)C1 (stereo not drawn) | inactive: 5.35%
70 | CCCCN(CCCC)CCNC(=O)c1cn(C)c2ccc(S(=O)(=O)N3CCCC3)cc2c1=O | inactive: -5.56%
71 | CCOC(=O)c1c(S(=O)(=O)N2CCC(C(=O)Nc3ccc(OCC)cc3)CC2)c(C)n(C)c1C | inactive: 9.33%
72 | Cc1nn(CCC(=O)N2CCN(c3ccccc3)CC2)c(C)c1S(=O)(=O)N1CCCC1 | inactive: 12.7%

Row | Compound | activity change, negative = cytotoxicity
73 | CCc1cnc2c(c1SCC(=O)N1CCC(C)CC1)c(=O)n(C)c(=O)n2C | inactive: 0.0114%
74 | Cc1c(NC(=O)Nc2ccc(F)c(Cl)c2)c(=O)n(-c2ccccc2)n1C | inactive: -15.5%
75 | COc1ccc(OC)c(NC(=O)N2c3ccccc3Sc3ccccc32)c1 | inactive: -9.31%
76 | CCc1ccc(C2c3c(-c4cc(C)ccc4O)n[nH]c3C(=O)N2Cc2cccnc2)cc1 (stereo not drawn) | inactive: -12.9%
77 | Cc1ccc(OCc2nc(-c3ccc(C(=O)N4CCN(c5ccccc5)CC4)cc3)oc2C)cc1 | inactive: 6.85%
78 | CCOc1ccc(CCNC(=O)Cn2nnc(-c3ccc(C(F)(F)F)cc3)n2)cc1OCC | inactive: 12.6%
79 | CC(=O)Nc1nnc(SCc2cc(=O)c3cccc(Cl)c3[nH]2)s1 | inactive: -12.3%
80 | Cn1cc(CCCC(=O)NCc2ccccc2Cl)c2ccccc21 | inactive: -2.22%
81 | CCOC(=O)c1c(NC(=O)CSc2nc(-c3ccccc3)cc(C(F)(F)F)n2)sc(C)c1C | inactive: -5.39%
82 | CCOc1ccc(CCNC(=O)CN2C(=O)c3cccnc3Oc3ccc(Cl)cc32)cc1 | inactive: -1.08%
83 | O=C(c1ccc([N+](=O)[O-])cc1)N1CCN(c2ccc(Nc3ccccc3)nn2)CC1 | inactive: 6.22%
84 | Cc1ccc(CNc2ccc(-c3nc(-c4ccccn4)no3)cc2[N+](=O)[O-])cc1 | inactive: 10.2%
85 | CCOc1ccc(OCC)c(Nc2cc(C)nc3nc(-c4ccco4)nn23)c1 | inactive: -0.782%
86 | CC(=O)N1c2ccc(S(=O)(=O)N3CCCCCC3)cc2CC1C(=O)NCc1ccccc1F (stereo not drawn) | inactive: -43.6%
87 | O=C(CSc1nccn1Cc1ccccc1)Nc1ccc2c(c1)OCO2 | inactive: -11.5%
88 | CCOC(=O)N1CCC(NC(=O)c2ccc3c(c2)N(Cc2cc(C)ccc2C)C(=O)c2ccccc2S3=O)CC1 (stereo not drawn) | inactive: 2.07%
89 | CCC(C)(C)NC(=O)Cn1c(=O)ccc2cc(S(=O)(=O)N3CCC(C)CC3)ccc21 | inactive: -24.2%
90 | COc1ccc(CCNC(=O)CCn2c(=O)c3cccn3c3cccnc32)c(OC)c1OC | inactive: 1.3%
91 | Cc1cccc(NC(=O)N2CCC(n3c(C)nc4cccnc43)CC2)c1 | inactive: 8.84%
92 | CCOc1cc(C(=O)NCCc2csc(-c3ccc(C)cc3)n2)cc(OCC)c1OCC | inactive: -0.35%
93 | COc1ccc(OC)c(CNC(=O)C2CCN(c3ncnc4c3nc3n4CCCCC3)CC2)c1 | inactive: -8.17%
